# According to PubChem BioAssay AID2100 (National Center for Advancing Translational Sciences (NCATS), 2009):
# Screen size: about 300,000 compounds; about 1,200 (0.4%) were called active. The inconclusive results got no clear call from the source; some entries with a clear call stand among them for comparison. Calls come from the whole dose curve; as a rule, active = well fitted inhibition curve with a large enough effect; inconclusive = small, poorly fitted or top-dose-only effect, or another doubt; inactive = no such curve, though single readings can be large or run the other way. A potency beside an inconclusive call is a rough fit, not a confirmed value.
# Target: Lysosomal alpha-glucosidase (Homo sapiens) (UniProt P10253)
# Experiment: qHTS Assay for Inhibitors and Activators of Human alpha-Glucosidase Cleavage of Glycogen;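 for activity change, negative = inhibition: 0% = full enzyme reaction and -100% = no-enzyme basal signal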
# Settings: recombinant GAA, glycogen substrate, Amplex Red glucose oxidase fluorescence; activity change, negative = inhibition: at 76.4 µM (top of the series) unless noted
# Summary of the method: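 Recombinant enzyme (4 nM final) with compounds titrated up to 77 uM and bovine liver glycogen (30 ug) in citrate pH 5.0, 0.01% Tween-20, 37 C 40 min. Released glucose detected by Amplex Red/glucose oxidase (Ex 573/Em 610); AC50 from Hill fits.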
# Potency is the fitted concentration of half-maximal effect.
SMILES,Potency,"activity change, negative = inhibition"
CCN(CC)c1ccc(/C=N/N=C(N)N)c(O)c1,"inconclusive: 22.4 µM [inhibitor, partial curve]",–
OCc1ccc(O)c2ncccc12,"inconclusive: 5.62 µM [inhibitor, full curve]",–
O=C(Nc1nc2ccc(S(=O)(=O)N3CCCCC3)cc2s1)c1ccncc1,"inconclusive: 11.2 µM [inhibitor, single point]",–
Cc1[nH][nH]c(=O)c1C(c1c(C)[nH][nH]c1=O)c1cn(Cc2cccc3ccccc23)c2ccccc12,"inconclusive: 17.6 µM [inhibitor, partial curve]",–
O=C(NNc1cc(Cl)cc(Cl)c1)c1c(F)cccc1Cl,"inconclusive: 10 µM [inhibitor, partial curve]",–
COc1cc(CC(=O)O)ccc1O,"inconclusive: 25.1 µM [inhibitor, partial curve]",–
COc1ccc(NC(=O)NNc2cc(N3CCOCC3)nc(N3CCOCC3)n2)cc1,"inconclusive: 28.2 µM [inhibitor, partial curve]",–
COc1ccc(Nc2nc(C)nc3sc4c(c23)CCC4)cc1O,"inconclusive: 9.92 µM [inhibitor, partial curve]",–
CCN(CC)S(=O)(=O)c1ccc(N/N=C/c2ccc(O)cc2O)nc1,"inconclusive: 7.94 µM [inhibitor, partial curve]",–
CCc1ccc(NSc2ccccc2[N+](=O)[O-])cc1,"inconclusive: 20 µM [inhibitor, partial curve]",–
CC(=O)NC(=O)Nc1sc(=S)n(C)c1C,"inconclusive: 14 µM [inhibitor, partial curve]",–
COc1ccccc1NC(=O)NNC(=O)c1ccc2ccccc2c1O,"inconclusive: 22.4 µM [inhibitor, partial curve]",–
Cn1c2ccccc2c2cnn(CC(=O)Nc3cccc(F)c3)c(=O)c21,–,inactive: -11.3%
COc1cc2ccc3c(CCN(C)C)cc(OC)c(OC)c3c2cc1OC,–,inactive: 0.835% [at 76.3 µM]
Cc1nonc1C(=O)N/N=C/c1ccc(O)c(O)c1,active: 7.94 µM,–
COCCCNC(=O)CNC(=O)c1cn(-c2ccccc2OC)c(=O)c2ccccc12,–,inactive: -4.02%
CSc1ccc(-c2nc3c(C)cccn3c2Nc2ccc3c(c2)OCCO3)cc1,"inconclusive: 22.4 µM [inhibitor, partial curve]",–
CC1CCN(c2ccccc2N)CC1,"inconclusive: 24.9 µM [inhibitor, partial curve]",–
O=C(O)c1[nH]c2ccccc2c1NS(=O)(=O)Cc1ccccc1,"inconclusive: 14 µM [inhibitor, partial curve]",–
COc1cccc(CN(C)c2nc(-c3cccs3)nc3ccccc23)c1,–,inactive: 10.2%
CC(C)(NO)/C(=N\O)c1ccc(Cl)cc1,"inconclusive: 22.4 µM [inhibitor, single point]",–
COc1ccc(N2CCN(C(=O)CCC(=O)NNc3nc4ccccc4c4nc(C)nn34)CC2)cc1,"inconclusive: 11.2 µM [inhibitor, partial curve]",–
COc1ccc(NC(=O)c2cc(S(=O)(=O)N(Cc3ccccc3)c3ccccc3)ccc2Cl)cn1,–,inactive: -0.421%

SMILES,Potency,"activity change, negative = inhibition"
Cc1cc(NC(=O)/C=C/c2ccccc2)c(C(C)C)cc1O,"inconclusive: 39.8 µM [inhibitor, partial curve]",–
O=C1CCc2cc(S(=O)(=O)N3CCC(C(=O)NCCC4=CCCCC4)CC3)ccc2N1,"inconclusive: 100 µM [inhibitor, partial curve, poor fit]",–
COc1ccccc1Nc1ncc(-c2cccs2)s1,"inconclusive: 39.5 µM [inhibitor, single point]",–
COc1c(O)c(O)c2oc(-c3ccccc3)cc(=O)c2c1OC,"inconclusive: 25.1 µM [inhibitor, single point]",–
CC(=O)Nc1nc(C)c(-c2csc(Nc3ccc(O)cc3)n2)s1,active: 25.1 µM,–
O=c1cc(-c2ccccc2)[nH][nH]1,"inconclusive: 17.8 µM [inhibitor, partial curve]",–
Cc1cc(N2CCN(C)CC2)nc2ccc(NC(=S)N3CCN(c4ccccn4)CC3)cc12,"inconclusive: 25.1 µM [inhibitor, partial curve]",–
CC(=O)c1cc(NC(=O)c2ccccc2)c(=O)oc1C,"inconclusive: 25.1 µM [inhibitor, single point]",–
CCn1c(CNc2ccc(OC)cc2)nnc1SCC(=O)c1ccc(OC)cc1,"inconclusive: 19.8 µM [inhibitor, partial curve]",–
C/C(=N\NC(=S)NCc1ccccc1)c1ccco1,"inconclusive: 25.1 µM [inhibitor, partial curve, poor fit]",–
CCOc1ccc(NC(=O)N(CCC(C)C)C(C)c2ccco2)cc1 (centres undefined),"inconclusive: 11.1 µM [inhibitor, partial curve, poor fit]",–
CCCCOC(=O)c1ccc(NC(=O)CC2NCCNC2=O)cc1 (centres undefined),–,inactive: 11.9% [at 76.3 µM]
Fc1ccc(-n2nnnc2-c2cnc(-c3cccs3)nc2C(F)(F)F)cc1,"inconclusive: 31.4 µM [inhibitor, partial curve]",–
COc1ccc(C2OC34CCCCC3C(C#N)(C#N)C2(C#N)C(=N)O4)cc1 (centres undefined),–,inactive: -7.55%
O=C1CCc2cc(S(=O)(=O)N3CCN(c4cccc(C(F)(F)F)c4)CC3)ccc2N1,–,inactive: -5.37%
Nc1n[nH]c(N)c1N=Nc1ccc(Cl)cc1,"inconclusive: 22.4 µM [inhibitor, partial curve]",–
COc1ccc2c(C=Nc3c(C)n(C)n(-c4ccccc4)c3=O)c(O)n(Cc3ccco3)c(=O)c2c1,"inconclusive: 15.7 µM [inhibitor, partial curve]",–
OCCN(C=NC1=NN(c2cccc(C(F)(F)F)c2)CC1)CCO,"inconclusive: 22.2 µM [inhibitor, partial curve]",–
Cc1cc(N2CCN(C3CCCCC3)CC2)nc2cccc(O)c12,"inconclusive: 22.4 µM [inhibitor, partial curve]",–
COc1ccc2oc(-c3ccc(C)c(NC(=O)c4ccc5c(c4)OCCO5)c3)nc2c1,–,inactive: 8.32% [at 76.3 µM]
COc1ccc(S(=O)(=O)Nc2cc(Sc3ncn[nH]3)c(O)c3ccccc23)cc1,"inconclusive: 28 µM [inhibitor, single point]",–
Cc1ccc(C(=O)N/N=C/c2ccc(-c3ccccc3[N+](=O)[O-])o2)cn1,"inconclusive: 28.2 µM [inhibitor, partial curve]",–
Cn1c(-c2ccccc2)cnc1NCc1ccccc1O,"inconclusive: 22.4 µM [inhibitor, partial curve]",–

SMILES,Potency,"activity change, negative = inhibition"
Cc1ccn2c(Nc3ccccc3)c(-c3ccccn3)nc2c1,"inconclusive: 3.16 µM [inhibitor, full curve]",–
COc1ccc(/C=N/Nc2ccc(C(=O)O)cc2)cc1OC,"inconclusive: 22.4 µM [inhibitor, partial curve]",–
N#CC1=C(SCC(=O)NC23CC4CC(CC(C4)C2)C3)NC(=O)C(C#N)C12CCCCC2 (centres undefined),"inconclusive: 50.1 µM [inhibitor, single point]",–
N#CC1=C(C2CC2)CC(c2ccccc2)C(C#N)=C1N (centres undefined),"inconclusive: 22.2 µM [activator, partial curve]",–
C=CCNC(=S)NNC(=O)c1ccncc1,"inconclusive: 11.2 µM [inhibitor, partial curve]",–
COc1ccc(Br)cc1/C=N/Nc1cccc(C(=O)O)c1,"inconclusive: 39.8 µM [inhibitor, partial curve]",–
CCOC(=O)C1CCCN(c2c(C(=O)c3ccc(OCC)cc3)cnc3ccccc23)C1 (centres undefined),active: 11.2 µM,–
CC(C)CN(CCCNC(=O)c1cc(-c2cccs2)nc2ccccc12)CC(C)C,–,inactive: 11.6% [at 76.3 µM]
CNNC(=O)C(=O)NNS(=O)(=O)c1ccccc1,"inconclusive: 25.1 µM [inhibitor, partial curve]",–
CCOC(=O)c1cc(OC(=O)c2cc(OC)c(OC)c(OC)c2)n(-c2ccccc2)n1,–,inactive: 8.01% [at 76.3 µM]
COc1cccc(CNC(=O)CCCn2nc(C)c3sc4ccccc4c3c2=O)c1,"inconclusive: 50.1 µM [inhibitor, single point]",–
O=C(O)c1ccc(N/N=C/c2ccc(-c3cccc(Cl)c3)o2)cc1,"inconclusive: 22.2 µM [inhibitor, single point]",–
Cc1ccc(/C=N/NC(=O)CSc2nc3ccccc3o2)cc1,–,inactive: -4.49%
Cc1ccc(/C=N/Nc2ccc(F)cc2F)s1,"inconclusive: 5.62 µM [inhibitor, single point]",–
C(=N\Nc1nc2ccccc2[nH]1)/c1cccc2cccnc12,active: 35.5 µM,–
COCCNc1nc(-c2ccc(OC)cc2)c(-c2ccc(OC)cc2)s1,"inconclusive: 50.1 µM [inhibitor, single point]",–
Cc1ccc2[nH]c(=O)c(C(c3nnnn3C(C)(C)C)N3CCN(C(=O)c4ccco4)CC3)cc2c1 (centres undefined),–,inactive: 0.257%
COc1cccc(NC(=O)N(Cc2c[nH]c3ccccc23)C2CCCCCC2)c1,–,inactive: 6.31% [at 76.3 µM]
COc1cc(C2C(C#N)=C(N)N(c3cccnc3)C3=C2C(=O)CC(C)(C)C3)ccc1O (centres undefined),"inconclusive: 15.8 µM [inhibitor, partial curve]",–
CC(=O)Cc1cc(O)c2ccccc2c1OC(=O)c1ccccc1,active: 8.91 µM,–
Nc1n[nH]c(C2CC2)c1N=Nc1ccc(Cl)cc1,"inconclusive: 35.5 µM [inhibitor, single point]",–
Cc1cc(O)ccc1NS(=O)(=O)c1ccc2c3c(cccc13)C(=O)N2,"inconclusive: 1.78 µM [inhibitor, partial curve, poor fit]",–
C=CCOc1ccc(C(=O)N(Cc2ccc(N(C)C)cc2)C2CCS(=O)(=O)C2)cc1 (centres undefined),"inconclusive: 12.6 µM [inhibitor, partial curve]",–
